Measured values published in patent publication US7652041B2, “Cinnamide and hydrocinnamide derivatives with kinase inhibitory activity” (Millennium Pharmaceuticals, Inc., priority 2005, dated 2010).

Test system: A375 cells
Test: Phospho-ERK ELISA assay
Type: cell-based
Conditions: Homo sapiens, A-375, 3 hours with inhibitor, anti-p44/42MAPK antibody ELISA, normalized for protein content
Method: Inhibition of Raf kinase activity in whole cell systems can be assessed by determining the decrease in phosphorylation of Raf kinase substrates. Any known Raf kinase substrate can be used to measure inhibition of Raf kinase activity in a whole cell system.
In a specific example, A375 cells were seeded in a 96-well cell culture plate (12×10^3 cells/100 μL/well) and incubated overnight at 37° C. Medium was removed, and cells were incubated with Raf kinase inhibitors for 3 hours at 37° C. Medium was removed, and cells were fixed with 4% paraformaldehyde for 15 minutes at room temperature.
Methanol was added for 15 min. Cells were removed and blocked with 10% sheep serum and 1% BSA in PBS overnight at 4° C. Cells were incubated with anti-p44/42MAPK antibody (1:100, Cell Signaling Technologies, #9101L) (20 μL/well) for one hour at room temperature. After washing with PBS three times, cells were stained with anti-rabbit horseradish peroxidase-linked antibody from donkey (1:100, Amersham Bioscience #NA934V) for 1 hour at room temperature. Cells were washed three times with 0.5% Tween-20 in PBS and twice with PBS. 3,3′,5,5′-Tetramethylbenzidine (TMB) liquid substrate system (Sigma, #T8665) (50 μL/well) was added, and cells were incubated for 30-45 minutes at room temperature. Optical density was read at 650 nm. Cells were then washed 3-5 times with PBS to remove color solution. Results were normalized for the protein content in each well using a BCA protein assay kit (Pierce).

How did the IC50 turn out when `O=C(CCc1cccc(Oc2ccnc(NC(=O)C3CC3)c2)c1)Nc1ccc(Cl)c(C(F)(F)F)c1` [Compound A-98, N-{4-[3-(3-{[4-chloro-3-(trifluoromethyl)phenyl]amino}-3-oxopropyl)phenoxy]pyridin-2-yl}cyclopropanecarboxamide] was run?
The IC50 was 1 to 10 µM.

How did the IC50 turn out when `Cc1cc(NC(=O)CCc2ccc(Oc3ccnc(C4=NCCN4)c3)cc2)ccc1Cl` [Compound A-223, N-(4-chloro-3-methylphenyl)-3-(4-{[2-(4,5-dihydro-1H-imidazol-2-yl)pyridin-4-yl]oxy}phenyl)propanamide] was run?
The IC50 was 1 to 10 µM.

Which IC50 does the source give for `Nc1cc(NC(=O)CCc2cccc(Oc3ccnc(C4=NCCN4)c3)c2)cc(C(F)(F)F)c1` [Compound A-233, N-[3-amino-5-(trifluoromethyl)phenyl]-3-(3-{[2-(4,5-dihydro-1H-imidazol-2-yl)pyridin-4-yl]oxy}phenyl)propanamide] here?
The IC50 was 1 to 10 µM.

`CC1(C)CNC(c2cc(Oc3ccc(CCC(=O)Nc4ccc(Cl)c(C(F)(F)F)c4)cc3)ccn2)=N1` [Compound A-205, N-[4-chloro-3-(trifluoromethyl)phenyl]-3-(4-{[2-(4,4-dimethyl-4,5-dihydro-1H-imidazol-2-yl)pyridin-4-yl]oxy}phenyl)propanamide] was tested. Which IC50 did it give?
Its IC50 is 1 to 10 µM.

For `Cc1cc(NC(=O)CCc2cccc(Oc3ccnc(C4=NCCN4)c3)c2)ccc1Cl` [Compound A-72, N-(4-chloro-3-methylphenyl)-3-(3-{[2-(4,5-dihydro-1H-imidazol-2-yl)pyridin-4-yl]oxy}phenyl)propanamide], which IC50 is on record?
The IC50 was 1 to 10 µM.

`O=C(CCc1cccc(Oc2ccnc(C3=NCCN3)c2)c1)Nc1cc(C(F)(F)F)ccc1Cl` [Compound A-89, N-[2-chloro-5-(trifluoromethyl)phenyl]-3-(3-{[2-(4,5-dihydro-1H-imidazol-2-yl)pyridin-4-yl]oxy}phenyl)propanamide] was tested. Which IC50 did it give?
Its IC50 is 1 to 10 µM.

For `O=C(CCc1cccc(Oc2ccnc(C3=NCCN3)c2)c1)Nc1cccc(C(F)(F)F)c1` [Compound A-151, 3-(3-{[2-(4,5-dihydro-1H-imidazol-2-yl)pyridin-4-yl]oxy}phenyl)-N-[3-(trifluoromethyl)phenyl]propanamide], which IC50 is on record?
Its IC50 is 1 to 10 µM.

With `CC(=O)Nc1cc(Oc2cccc(CCC(=O)Nc3cccc(C(C)(C)C)c3)c2)ccn1` [Compound A-96, 3-(3-{[2-(acetylamino)pyridin-4-yl]oxy}phenyl)-N-(3-tert-butylphenyl)propanamide] as the molecule, how does the IC50 read?
The IC50 was ≤ 1 µM.

With `CN(C)CCNC(=O)c1cc(NC(=O)CCc2cccc(Oc3ccnc(C4=NCCN4)c3)c2)cc(C(F)(F)F)c1` [Compound A-190, 3-{[3-(3-{[2-(4,5-dihydro-1H-imidazol-2-yl)pyridin-4-yl]oxy}phenyl)propanoyl]amino}-N-[2-(dimethylamino)ethyl]-5-(trifluoromethyl)benzamide] as the molecule, how does the IC50 read?
The IC50 was 1 to 10 µM.

With `CN(C)CCCc1cc(NC(=O)CCc2cccc(Oc3ccnc(C4=NCCN4)c3)c2)cc(C(F)(F)F)c1` [Compound A-165, 3-(3-{[2-(4,5-dihydro-1H-imidazol-2-yl)pyridin-4-yl]oxy}phenyl)-N-[3-[3-(dimethylamino)propyl]-5-(trifluoromethyl)phenyl]propanamide] as the molecule, how does the IC50 read?
Its IC50 is 1 to 10 µM.

For `CCNC(=N)c1cc(Oc2ccc(CCC(=O)Nc3ccc(Cl)c(C(F)(F)F)c3)cc2)ccn1` [Compound A-112, N-[4-chloro-3-(trifluoromethyl)phenyl]-3-[4-({2-[(ethylamino)(imino)methyl]pyridin-4-yl}oxy)phenyl]propanamide], which IC50 is on record?
Its IC50 is 10 to 25 µM.

Which IC50 does the source give for `CNC(=O)c1cc(Oc2ccc(CCC(=O)Nc3ccc(Cl)cc3)cc2)ccn1` [Compound A-11, 4-(4-{3-[(4-chlorophenyl)amino]-3-oxopropyl}phenoxy)-N-methylpyridine-2-carboxamide] here?
Its IC50 is 10 to 25 µM.

For `O=C(CCc1ccc(Oc2ccnc(C3=NCCCN3)c2)cc1)Nc1cccc(C(F)(F)F)c1` [Compound A-86, 3-(4-{[2-(1,4,5,6-tetrahydropyrimidin-2-yl)pyridin-4-yl]oxy}phenyl)-N-[3-(trifluoromethyl)phenyl]propanamide], which IC50 is on record?
Its IC50 is 10 to 25 µM.

With `CNCc1cnc(-c2cc(Oc3cccc(CCC(=O)Nc4ccc(Cl)c(C(F)(F)F)c4)c3)ccn2)[nH]1` [Compound A-109, N-[4-chloro-3-(trifluoromethyl)phenyl]-3-{3-[(2-{5-[(methylamino)methyl]-1H-imidazol-2-yl}pyridin-4-yl)oxy]phenyl}propanamide] as the molecule, how does the IC50 read?
Its IC50 is 1 to 10 µM.

Which IC50 does the source give for `CC(=O)Nc1cc(Oc2cccc(CCC(=O)Nc3cc(OCCN(C)C)cc(C(F)(F)F)c3)c2)ccn1` [Compound A-211, 3-(3-{[2-(acetylamino)pyridin-4-yl]oxy}phenyl)-N-[3-[2-(dimethylamino)ethoxy]-5-(trifluoromethyl)phenyl]propanamide] here?
The IC50 was 1 to 10 µM.

`O=C(CCc1cccc(Oc2ccnc(C3=NCCN3)c2)c1)Nc1ccc(F)c(C(F)(F)F)c1` [Compound A-213, 3-(3-{[2-(4,5-dihydro-1H-imidazol-2-yl)pyridin-4-yl]oxy}phenyl)-N-[4-fluoro-3-(trifluoromethyl)phenyl]propanamide] was tested. Which IC50 did it give?
Its IC50 is 10 to 25 µM.

How did the IC50 turn out when `CC1CNC(c2cc(Oc3cccc(CCC(=O)Nc4ccc(Cl)c(C(F)(F)F)c4)c3)ccn2)=N1` (stereo not drawn) [Compound A-200, N-[4-chloro-3-(trifluoromethyl)phenyl]-3-(3-{[2-(4-methyl-4,5-dihydro-1H-imidazol-2-yl)pyridin-4-yl]oxy}phenyl)propanamide] was run?
The IC50 was 1 to 10 µM.

For `CN(C)C(=O)c1cnc(-c2cc(Oc3cccc(CCC(=O)Nc4ccc(Cl)c(C(F)(F)F)c4)c3)ccn2)[nH]1` [Compound A-171, 2-{4-[3-(3-{[4-chloro-3-(trifluoromethyl)phenyl]amino}-3-oxopropyl)phenoxy]pyridin-2-yl}-N,N-dimethyl-1H-imidazole-5-carboxamide], which IC50 is on record?
Its IC50 is ≤ 1 µM.

For `CN(C)CCCc1ccc(NC(=O)CCc2cccc(Oc3ccnc(C4=NCCN4)c3)c2)cc1C(F)(F)F` [Compound A-244, 3-(3-{[2-(4,5-dihydro-1H-imidazol-2-yl)pyridin-4-yl]oxy}phenyl)-N-[4-[3-(dimethylamino)propyl]-3-(trifluoromethyl)phenyl]propanamide], which IC50 is on record?
The IC50 was 1 to 10 µM.

How did the IC50 turn out when `Cc1ccc(C(F)(F)F)cc1NC(=O)CCc1cccc(Oc2ccnc(C3=NCCN3)c2)c1` [Compound A-189, 3-(3-{[2-(4,5-dihydro-1H-imidazol-2-yl)pyridin-4-yl]oxy}phenyl)-N-[2-methyl-5-(trifluoromethyl)phenyl]propanamide] was run?
Its IC50 is 1 to 10 µM.

How did the IC50 turn out when `CCc1ccc(NC(=O)CCc2cccc(Oc3ccnc(C4=NCCN4)c3)c2)cc1C(F)(F)F` [Compound A-265, 3-(3-{[2-(4,5-dihydro-1H-imidazol-2-yl)pyridin-4-yl]oxy}phenyl)-N-[4-ethyl-3-(trifluoromethyl)phenyl]propanamide] was run?
Its IC50 is ≤ 1 µM.

For `O=C(CCc1cccc(Oc2ccnc(-c3ncc(CO)[nH]3)c2)c1)Nc1ccc(Cl)c(C(F)(F)F)c1` [Compound A-147, N-[4-chloro-3-(trifluoromethyl)phenyl]-3-[3-({2-[5-(hydroxymethyl)-1H-imidazol-2-yl]pyridin-4-yl}oxy)phenyl]propanamide], which IC50 is on record?
The IC50 was 1 to 10 µM.

How did the IC50 turn out when `O=C(CCc1ccc(Oc2ccnc(C(=O)NCCN3CCCC3)c2)cc1)Nc1ccc(Cl)c(C(F)(F)F)c1` [Compound A-26] was run?
Its IC50 is 10 to 25 µM.

With `CC(C)(C)c1cccc(NC(=O)CCc2ccc(Oc3ccnc(C4=NCCN4)c3)cc2)c1` [Compound A-115, N-(3-tert-butylphenyl)-3-(4-{[2-(4,5-dihydro-1H-imidazol-2-yl)pyridin-4-yl]oxy}phenyl)propanamide] as the molecule, how does the IC50 read?
Its IC50 is ≤ 1 µM.
